Experimental data reported in the supplement of paper PMC4604168 (melanoma cell lines).
The other results are listed elsewhere or left out. Many values rest on one well or one pass, so single values are uncertain.

Experiments:
Experiment in all cases: cell count relative to DMSO control; melanoma cells; higher = more viable cells
Conditions in all cases: library dose: standard library concentration; 72 h
G361 = system: G361
IPC-298 = system: IPC-298
IST-MEL1 = system: IST-MEL1
LOXIMVI = system: LOXIMVI
MEL-HO = system: MEL-HO
MeWo = system: MeWo
RPMI7951 = system: RPMI7951
RVH-421 = system: RVH-421
LB2518-MEL = system: LB2518-MEL
MZ2-MEL = system: MZ2-MEL
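Also: cells treated in 1,536-well plates, then fixed and DAPI-stained, with nuclei counted from automated high-throughput microscope images.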

Structure (SMILES)	cell count (G361)	cell count (IPC-298)	cell count (IST-MEL1)	cell count (LOXIMVI)	cell count (MEL-HO)	cell count (MeWo)	cell count (RPMI7951)	cell count (RVH-421)	cell count (LB2518-MEL)	cell count (MZ2-MEL)
COc1ccc(C2=N[C@@H](c3ccc(Cl)cc3)[C@@H](c3ccc(Cl)cc3)N2C(=O)N2CCNC(=O)C2)c(OC(C)C)c1 [Nutlin-3] + CCCCCCCCCCCC1=C(O)C(=O)C=C(O)C1=O [Embelin] (first compound 0.5 µM, partner dose 6 µM)	74.7%	92.9%	101%	48%	79.2%	102%	96.3%	73.9%	–	–
Cc1cc(Nc2cc(N3CCN(C)CC3)nc(/C=C/c3ccccc3)n2)n[nH]1 + COc1cc2ncnc(Nc3ccc(Oc4ccccc4)cc3)c2cc1OC [SrcI1] (first compound 0.2 µM, partner dose 10 µM)	83.6%	87%	105%	74.8%	84.7%	80.8%	36.8%	114%	–	–
CC(C)C[C@H](NC(=O)[C@H](Cc1ccccc1)NC(=O)c1cnccn1)B(O)O [Bortezomib] + Oc1nc(-c2ccc(C(F)(F)F)cc2)nc2c1CSCC2 [XAV939] (first compound 0.005 µM, partner dose 10 µM)	61.2%	90.1%	88%	92.9%	85.8%	81.5%	78.6%	76.7%	85%	91.5%
Cc1cn(-c2cc(NC(=O)c3ccc(C)c(Nc4nccc(-c5cccnc5)n4)c3)cc(C(F)(F)F)c2)cn1 [nilotinib] + Cn1cncc1[C@@](N)(c1ccc(Cl)cc1)c1ccc2c(c1)c(-c1cccc(Cl)c1)cc(=O)n2C [tipifarnib] (first compound 1 µM, partner dose 0.05 µM)	83.8%	93.1%	84%	82.5%	86.4%	–	87.3%	74.4%	74.6%	117%
Cc1cn(-c2cc(NC(=O)c3ccc(C)c(Nc4nccc(-c5cccnc5)n4)c3)cc(C(F)(F)F)c2)cn1 [nilotinib] + CCc1ccc(CCOc2ccc(CC3SC(=O)NC3=O)cc2)nc1 [pioglitazone] (first compound 1 µM, partner dose 10 µM)	104%	109%	134%	215%	99.2%	84.2%	86.5%	91.4%	–	–
Cc1cn(-c2cc(NC(=O)c3ccc(C)c(Nc4nccc(-c5cccnc5)n4)c3)cc(C(F)(F)F)c2)cn1 [nilotinib] + COCC[n+]1c2c(n(Cc3cnccn3)c1C)C(=O)c1ccccc1C2=O [YM155] (first compound 1 µM, partner dose 0.002 µM)	79.9%	22.2%	40.7%	–	94.1%	44.2%	53.2%	72%	29.2%	55.3%
COc1ccc(C2=N[C@@H](c3ccc(Cl)cc3)[C@@H](c3ccc(Cl)cc3)N2C(=O)N2CCNC(=O)C2)c(OC(C)C)c1 [Nutlin-3] + OCCn1cc(-c2cnc3nnn(Cc4ccc5ncccc5c4)c3n2)cn1 [PF04217903] (first compound 0.5 µM, partner dose 5 µM)	78%	111%	112%	71.4%	86.1%	110%	91.1%	70.5%	69.1%	131%
Cc1cn(-c2cc(NC(=O)c3ccc(C)c(Nc4nccc(-c5cccnc5)n4)c3)cc(C(F)(F)F)c2)cn1 [nilotinib] + COC(=O)c1sccc1S(=O)(=O)Nc1ccc(Nc2ccccc2)cc1OC [GSK0660] (first compound 1 µM, partner dose 5 µM)	77.9%	97%	114%	70.2%	99.6%	92.7%	93%	79.1%	106%	81.9%
Cc1cn(-c2cc(NC(=O)c3ccc(C)c(Nc4nccc(-c5cccnc5)n4)c3)cc(C(F)(F)F)c2)cn1 [nilotinib] + CN(c1ncccc1CNc1nc(Nc2ccc3c(c2)CC(=O)N3)ncc1C(F)(F)F)S(C)(=O)=O [PF562271] (first compound 1 µM, partner dose 0.4 µM)	67.8%	98.7%	85.6%	112%	90.1%	87.3%	59.6%	74.4%	67.7%	–
Cc1cc(Nc2cc(N3CCN(C)CC3)nc(/C=C/c3ccccc3)n2)n[nH]1 + C#Cc1cccc(Nc2ncnc3cc(OCCOC)c(OCCOC)cc23)c1 [erlotinib] (first compound 0.2 µM, partner dose 4 µM)	56.9%	51.9%	79.3%	66.2%	60.5%	56.8%	60.4%	56.7%	43.4%	69.3%
Cn1c(=O)n(-c2ccc(C(C)(C)C#N)cc2)c2c3cc(-c4cnc5ccccc5c4)ccc3ncc21 + CN(NC(=O)CC(=O)NN(C)C(=S)c1ccccc1)C(=S)c1ccccc1 [STA4783] (first compound 0.02 µM, partner dose 0.03 µM)	33.4%	70.9%	21.9%	43.2%	65.5%	20.8%	43.9%	49.2%	–	–
